# Data: the RNAGym collection of RNA variant scans (doi:10.7554/elife.90254)
# The source gives no read counts; variants with many changes may rest on few reads.
# B1: LINE1-full (parent)
# chain: UACGUAGGUGGUUUUCCCCUGAUAGUGCUAAGGGGGCCUGGAAGUUUGGACUGGGCAGAGCUCAACACAGCGUGGCAAAGUGGCUGUGGCUAGACUGCCUCUCUGGAUUCCUCGUCACUCAGCAGGGCAUCUCUGAGAGAAAUGCC
# Variants of: B1
# Assay: self-cleavage, relative activity (ratio to wild type); higher = more cleavage; in vitro, sequencing; the parent is a self-cleaving ribozyme
row,Variant,self-cleavage
1,U23C U46A A136U,1.66
2,A2U A78U U81C U115A A124G U132C U134C,2.76
3,U13C U14C A136G,1.7
4,U26A A30C A57U A79G U87A,0
5,G8A C68U A78G U130C U132C,0.19
6,U14C A79G A140G,1.22
7,G32U U39A G41A G97U,0.08
8,U39A U62A U73A G88A A140U,0.02
9,U15C C61U U112C,0.06
10,A57C U62A C103A,0.11
11,U9A A78G A117G,0.84
12,A22G U29G G88A,0.12
13,A77G A79U U85C A142G,0
14,U5C U14A U52A C145G,0.34
15,G36U A69U U73C A124G,0.05
16,U14C C120U U132C,1.33
17,A64G U115A A138U,0.1
18,A22G A69G C111A A141G,0.9
19,G7U U15A U81C C103A A136G,0.8
20,C51A U87A U134A,0.02
21,U26C A59U U73G U115C,0.92
22,A42G A77G G105A A142G,1.64
23,U29C U62C A78G A142G,0.2
24,G32C U52C U96C A136G G137A,0

row,Variant,self-cleavage
1,U12C A64G A79U,0.55
2,A50C A59G U108C,0
3,C17U U130C A138G,0.94
4,U12C A22U G27C,1.58
5,C17U U39C A65G,0
6,U47C U81A U112C,2.64
7,A31U A69G U81A,0.6
8,U14C U109A U130C,1.47
9,G36C A64U G72U A107G U108C,0.38
10,A79G U104C A138G,0.9
11,G86A U115C A140G,0.07
12,A42G U130C C145U,0.97
13,A59G C99U A121G,0.18
14,C19U U39A A79G,1.11
15,U13C G48U U96A G97A,0.09
16,A31U G40U U62C A67C U119A G137A A138G,0
17,C128U A129U A138C,0.64
18,A2G G89A U143C,0.11
19,U1C G21A A142G,1.07
20,U39A G93A C113U,0.04
21,A2G G41A A69U A79G,0
22,U119A C131U A140G,1.99
23,G8A U23C U109A,1.97
24,A2G U12G U39C G48A,0

row,Variant,self-cleavage
1,U14C U39A A79U,1.43
2,U26C G105A A124U,1.71
3,G60C C71A U108C U134A,0.03
4,A22G A65U A79U,0.15
5,U13C A31G U108C,1.45
6,A57C U62A G86A A136G,0.18
7,U12C U20C G53A,1.07
8,U47A U52A G60U U134C,0.02
9,U13A U45C U109C,1.62
10,U14A U26A U45C G86A U104A A129G U130C A138G,0.06
11,A57U U81C U119C,0.06
12,U15C A67G U73C U104A,0.38
13,U15C A22G A67C U87C,0
14,U26A U132C A141G,0.92
15,U1C U26A U47A U91C,0.18
16,C17G U45A G72A,0.94
17,U5G U39A A59G A77G,0.19
18,U20A A124U A129G,1.76
19,U5C U23A A43U U104A A129U,1.41
20,U1A U13A U85C,0.19
21,U12C U14C U26C,0.93
22,U62C A79G U109C U112A A140G,0
23,U23C U29C A59G,0
24,A22G A43G A67G C76U U96C,0

row,Variant,self-cleavage
1,U26C A67G A77U,0
2,A69G A121C A124U,0
3,G36A U46C U102A U104C U115A,1.86
4,A43G U52A G74C,1.52
5,G7C A129C U132C,1.38
6,A69G U119C A138U A140G,2.04
7,U14C U20A A94G A141G,0.39
8,A42U U115C U132C,1.31
9,U5G U45C A50G,1.1
10,A30G A57U A69G,0
11,C16A U52A U102C U134A A136G,0.23
12,U20C A42G A57U A107G,0.08
13,U1A U14C U112A A129C,1.84
14,A78G U87C C111A,0.08
15,U5C U100C G127C U143C,1.41
16,A42G U73C U104A,0.51
17,U5C U15C G40A A42G A50G U73A,2.12
18,U52C U62C U130C,0.11
19,U20C A59G C101U U112C U115C,0.18
20,U13C A57U A59G A121G C128A U143C,0.17
21,U5C A22G U52A,2.12
22,A22U A59G G72A G122C,0.08
23,A65U C98G C146U,0.03
24,A42U C66U U100C U109C C146U,0.02

row,Variant,self-cleavage
1,U130C U132A A142G,1.3
2,U23A A65G G80A U112C,0.22
3,U46A A107G C113U,1.62
4,U39A A79U A129G,1.38
5,U47C A67G U81A A141G,0
6,G32A A43U A124G,1.25
7,A30U A50G A77G,0.92
8,U20C A69G U132A,0.38
9,A69C U109C A138U,0
10,U87A U100C C101A A117U A129U,0.05
11,A57G A59G U108C,0.26
12,U1C G32A A42G A57G A69U,0.03
13,A50G A92U U130C,0.4
14,C19G U45C U100A U130A,1.53
15,U23A G58A A142C,0.07
16,U14A A79G C98G,0.04
17,U14C U20A A57U U73C A140G,0.1
18,C37G A94U U132A,0.11
19,G48A U62C A69U U109C A142C,0.01
20,U9G U23C U39C,0.75
21,U1C C16U U108C U132C,0.78
22,U45C U46C U73A A129U,2.72
23,U52C C113A U132C,0.5
24,U5C A69G U85C G86U,0

row,Variant,self-cleavage
1,A64U A69C A78U U87C U96C U119A A142G,0
2,U20C A67G G127A,1.05
3,A78U U100A A107G U115A U119A,2.61
4,A59G U73A U115C,0.14
5,U1C U26G U132C,2.24
6,A59G C61U U73A G126U,0.03
7,U9C U14C A121G,1.38
8,A57U G74U A92G U100A,0.06
9,U13A A24G A50G A77U G106U A121G,0.95
10,A42G A77U U108A,0.52
11,A30G A57G C95G,0.06
12,A31U G53A U62C G127A A136G,0.04
13,U13A A138C A141G,1.68
14,C3U U52C C123U,0.53
15,C19U G83A U112C U119C,1.02
16,U1A A79U U100A A140G,2.21
17,A79G U87A U130C U143C,0
18,U47C A64G U73A G126U,0.28
19,C90U U132C C146U,0
20,U13C U14C A107G U108C,1.84
21,A59G U81C U132C,0
22,G33A A94G C103A,0.32
23,U13C U15A U45C A65G G72A U100C A121G,0
24,A59G G89C U112A,0

row,Variant,self-cleavage
1,U5A A42G U87A U115C,0.26
2,U13C U96C U108C A121C,0
3,U9C A43G A50G,1.53
4,U5C U20C A43G G82A,1.23
5,C51U U52C A78U U81C U96A U132C,0.04
6,A6G U20A U47C U87A,0.27
7,A78U U109C U115C,2.04
8,A6G A78G U119C A121C,0
9,C84U U100C A107G,0
10,A30U A77U U85C,0.12
11,U15C U29A U108C,0.92
12,A59U U62C U85A G144A,0.09
13,A42G U73A U132A,1.59
14,G4C A64U G86A U104C U134C,0.07
15,U52C A124U U130A,0.93
16,U1C U81C U132C,0.99
17,U14G A65G U85C U102C,0
18,A64G A92U A121G A138G,1.38
19,G53A A64G A67C U119A,0.07
20,A24G U26C A107G,1.02
21,U13C A67G A142G U143A,0.9
22,A22G U26C U47C A50U,0.92
23,A6U G40A A42G A121U,1.28
